Hit rate of the full screen: of about 360,000 compounds, about 6,000 (1.7%) were called active. Inconclusive means that the source gave no clear call. Such entries were picked first, then a sample of the others. The call rests on the fitted dose curve; in most records, active means well fitted cell-killing curve with a large enough effect; inconclusive means small, poorly fitted or top-dose-only effect, or effect the other way; inactive means flat fitted curve, though single readings scatter. No potency is given beside an inconclusive call; the fits are too rough.
Assay: qHTS for induction of synthetic lethality in tumor cells producing 2HG: qHTS for the HT-1080-NT fibrosarcoma cell line;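 further: NT is the 2HG producing partner of a matched IDH1 knockdown line; nearly all actives have a fitted effect of over 55% in size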;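 on activity, negative = less viability: 0% = DMSO-treated cells and -100% = media-only wells without cells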
Settings: HT-1080-NT fibrosarcoma viability, CellTiter-Glo ATP luminescence, 48 h; activity, negative = less viability: at 46.1 µM (top of the series) unless noted
Method in brief: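 Fibrosarcoma NT cells, 750 per well in 5% FBS RPMI, were exposed to compound for 48 hours. Viability: CellTiter-Glo luminescence.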
Potency means the concentration at half of the fitted maximal effect; tags describe the fitted curve by direction and shape.

Row | SMILES | Potency | activity, negative = less viability
1 | O=C(c1ccc(N2CN(C(=O)c3ccco3)c3nc4ccccc4nc32)cc1)N1CCOCC1 | inconclusive [cytotoxic, single point] | –
2 | C=CCNC(=O)c1onc(CSc2ccc(C)c(C)c2)c1C(=O)O | – | inactive: -6.94%
3 | COc1ccc(-c2nsc(C(=O)N(c3ccc(F)cc3)C(C(=O)NC3CCCC3)c3ccc(OC)cc3)c2N)cc1 (stereo unspecified) | inconclusive [cytotoxic, single point] | –
4 | Cc1nn(-c2ccc(F)cc2)c(Cl)c1/C=N/NC(=O)c1cccs1 | inconclusive [cytotoxic, single point] | –
5 | COc1cc2c(cc1OC)/C(=C/c1ccc(Cl)cc1)C(=O)OC2 | inconclusive [cytotoxic, single point] | –
6 | COc1ccc(OC)c(-c2csc(N(Cc3ccco3)C(=O)c3cccs3)n2)c1 | – | inactive: -21%
7 | COc1cc2c(cc1NC(=O)C1CCCO1)oc1ccccc12 (stereo unspecified) | inconclusive [cytotoxic, single point] | –
8 | CCOc1ccc(CN2CCN(Cc3c[nH]c4ccccc34)CC2)cc1 | inconclusive [cytotoxic, partial curve] | –
9 | Cc1ccc(-c2n[nH]c(=O)c3ccccc23)cc1S(=O)(=O)Nc1ccccc1 | active: 25.9 µM | –
10 | CCn1c(=O)c(C(=O)NNC(=O)c2ccccc2Cl)c(O)c2ccccc21 | inconclusive [cytotoxic, partial curve] | –
11 | COc1ccc(C(=O)NC(=S)Nc2ccc3c4c(cccc24)CC3)cc1OC | inconclusive [rising, partial curve] | –
12 | CCc1nc2c(OCc3cc(Cl)cc(Cl)c3)cccn2c1N(C)C(=O)c1ccccc1F | active: 18.4 µM | –
13 | CC(=O)NS(=O)(=O)c1ccc(NC(=O)C(Sc2ccccc2)c2ccccc2)cc1 (stereo unspecified) | – | inactive: 10.3%
14 | COc1cc(-c2coc3c(C(=O)NCc4cccc(Cl)c4)cccc23)ccc1O | inconclusive [cytotoxic, single point] | –
15 | CC(C)CN1CN(Cc2ccccc2)CNC1=S | – | inactive: 19.9%
16 | CCCc1cc(NCCCn2ccnc2)n2nc(C)c(-c3ccccc3)c2n1 | inconclusive [cytotoxic, partial curve] | –
17 | CC(=O)N1CC(C)Sc2ccc(S(=O)(=O)NCc3ccc(F)cc3)cc21 (stereo unspecified) | inconclusive [cytotoxic, single point] | –
18 | CCCCN(Cc1cc2ccccc2[nH]c1=O)S(C)(=O)=O | – | inactive: 3.81%
19 | CC(=O)/C=C\c1ccccc1OC(=O)c1cc2ccccc2oc1=O | – | inactive: 0.222%
20 | O=C(Nc1cccc(-c2cccc(F)c2)c1)C1CCN(C2CCC2)CC1 | – | inconclusive: -3.29% [cytotoxic]
21 | COc1ccc(OC)c(C(=O)c2coc3ccc(O)c(CN(C)C)c23)c1 | – | inactive: -1.83%
22 | CCC(C)NC(=O)c1cnn2c(C)c3c(nc12)CCCC3 (stereo unspecified) | inconclusive [cytotoxic, single point] | –
23 | CNc1ccc(Br)cc(C(=O)/C=C/c2ccc(Cl)cc2Cl)c1=O | inconclusive [cytotoxic, partial curve] | –
24 | O=C1NC(Cc2ccc(O)cc2)c2nc3cc(F)ccc3c(=O)n2-c2cc3ccccc3cc21 (stereo unspecified) | active: 14.6 µM | –

Row | SMILES | Potency | activity, negative = less viability
25 | CCCOc1ccc(NC(=O)CC2C(=O)N(C)C(=S)N2Cc2ccc3c(c2)OCO3)cc1 (stereo unspecified) | inconclusive [cytotoxic, single point] | –
26 | COC(=O)C1=C(C)N(Cc2ccccc2)C(=NCCc2cccnc2)N[C@H]1c1ccccc1 | inconclusive [cytotoxic, partial curve] | –
27 | O=C(Nc1cccnc1Cl)C1CCCN(c2ncnc3c2nc2n3CCCCC2)C1 (stereo unspecified) | – | inactive: 0.447%
28 | CCN(CC)c1ccc(NC(=O)c2cccc(C)c2OC)c(C)c1 | inconclusive [cytotoxic, single point] | –
29 | COc1ccc(CC(N)c2csc(NC(=O)c3cccc(OC(F)(F)F)c3)n2)cc1 (stereo unspecified) | active: 20.6 µM | –
30 | CC(=O)N1/C(=C/c2ccc(N(C)C)cc2)C(=O)c2ccccc21 | active: 3.26 µM | –
31 | CCOC(=O)C[C@@H]1OC[C@H](CO)N1S(=O)(=O)c1ccc(C)cc1 | – | inactive: 2.71%
32 | O=S(=O)(Nc1cccc(-c2ccc(N3CCCCCC3)nn2)c1)c1cccc(F)c1 | inconclusive [cytotoxic, single point] | –
33 | O=C(CCl)N1N=C(c2ccco2)CC1c1ccco1 (stereo unspecified) | active: 25.9 µM | –
34 | Fc1cccc(-c2cc3nc(-c4ccccc4)cc(N4CCC5(CC4)OCCO5)n3n2)c1 | – | inactive: -10.7%
35 | C=CCN1c2ccccc2[C@]23C[C@@H](C(=O)OC)N(C(=O)c4ccc(Br)cc4)C2=NC(C(=O)OC)=C(C(=O)OC)[C@H]13 | active: 18.4 µM | –
36 | COc1cccc(-c2csc(NC3OC(=O)c4c3ccc(OC)c4OC)n2)c1 (stereo unspecified) | inconclusive [cytotoxic, single point] | –
37 | Cc1ccc(OC2CCN(C(=O)[C@H]3O[C@@H](n4cnc5c(N)ncnc54)[C@H](O)[C@@H]3O)CC2)cc1 | inconclusive [cytotoxic, single point] | –
38 | NC(c1ccccc1)c1csc(NC(=O)Nc2cccc(Cl)c2)n1 (stereo unspecified) | active: 20.6 µM | –
39 | O=C(CC1C=CCC1)Nc1ccccc1 (stereo unspecified) | – | inactive: 4.1%
40 | Cc1ccccc1OCC(=O)N1CCCc2ccccc21 | – | inactive: 26.4%
41 | Cc1cc(NC(=O)COC(=O)c2cc([N+](=O)[O-])ccc2N2CCOCC2)ccc1Br | inconclusive [cytotoxic, partial curve] | –
42 | CN(CC(=O)Nc1ccc(Cl)c(C(F)(F)F)c1)C(=O)CCCc1nc2ccccc2c(=O)[nH]1 | – | inactive: -2.67%
43 | COC(=O)CCN(c1ccccc1)S(=O)(=O)c1cc(-c2cc(C)no2)ccc1OC | – | inactive: -14.8%
44 | CCCc1cc(C(=O)Nc2nccs2)cs1 | inconclusive [cytotoxic, single point] | –
45 | COc1ccccc1N(Cc1ccccc1)S(=O)(=O)c1cc(C(=O)O)ccc1Cl | inconclusive [cytotoxic, single point] | –
46 | Cc1ccsc1CNC(=O)C1(C)CCN1C(=O)C(C)C (stereo unspecified) | inconclusive [rising, partial curve] | –
47 | Nc1nc(-c2ccc(NC(=O)c3ccco3)cc2)cs1 | active: 7.31 µM | –
48 | COc1ccc(C(=O)NCc2ccco2)cc1S(=O)(=O)NC1CC1 | – | inactive: -0.261%

Row | SMILES | Potency | activity, negative = less viability
49 | CC(=O)NS(=O)(=O)c1ccc(NC(=O)c2oc3c(Cl)cccc3c2C)cc1 | inconclusive [rising, partial curve, poor fit] | –
50 | Cc1ccc(Cn2nnc3c(=O)n(CC(=O)NCc4ccccc4)cnc32)cc1 | inconclusive [cytotoxic, single point] | –
51 | c1ccc(Cc2nnc(-c3ccccc3)o2)cc1 | inconclusive [cytotoxic, single point] | –
52 | CCOC(=O)[C@H]1[C@H]2COc3ccccc3[C@@H]2N2C(=O)c3cc(C)ccc3NC(=O)[C@@]12C | inconclusive [rising, partial curve] | –
53 | CC1C(c2ccccc2)N(C)C(c2ccccc2)CC1(O)c1ccccc1 (stereo unspecified) | inconclusive [cytotoxic, single point] | –
54 | CC(=O)c1cccc(NC(=S)NC(=O)c2cccc(C)c2)c1 | – | inactive: 2.41%
55 | Cc1cc(=O)[nH]c(=S)[nH]1 | inconclusive [rising, single point] | –
56 | CC(C)C[C@@H](CN1CCC[C@@H]1CN1C(=S)NC[C@@H]1Cc1ccc(O)cc1)N1C[C@H](Cc2ccc(O)cc2)N(CC2CCCCC2)C1=S | active: 23.1 µM | –
57 | Cc1noc(C)c1COC(=O)CN(C)S(=O)(=O)c1ccc(Cl)cc1 | – | inactive: 16.9%
58 | CC(C)(CO)NCc1cccc(OCc2ccc(Cl)cc2)c1 | inconclusive [cytotoxic, single point] | –
59 | CCOC(=O)C1=CN(C)C=C(C(=O)OCC)C1c1ccsc1 | – | inactive: 9.08%
60 | CCOc1ccc(NC(=O)Cn2cc(C(=O)c3ccco3)c3ccccc32)cc1 | – | inactive: 1.61%
61 | CCN1C(=O)S/C(=C/c2ccc(Oc3ccc([N+](=O)[O-])cn3)c(OC)c2)C1=O | inconclusive [rising, partial curve] | –
62 | Cc1ccccc1N=C/C=C1/C=C(c2ccccc2)OC(C)(C)O1 | inconclusive [cytotoxic, single point] | –
63 | CCOC(=O)Cc1ncccc1C(=O)Nc1ccc(OC(F)(F)F)cc1 | inconclusive [cytotoxic, single point] | –
64 | Cc1ccc(S(=O)(=O)N2CCCCC2CCNC(=O)C(=O)NCc2cccnc2)cc1 (stereo unspecified) | inconclusive [cytotoxic, single point] | –
65 | CCOC(OCC)c1cn(Cc2ccc(C(=O)c3ccccc3)cc2)nn1 | inconclusive [cytotoxic, single point] | –
66 | Cc1ccccc1OCc1nnc(SCC(=O)Nc2ccc3c(c2)OCO3)n1C | inconclusive [cytotoxic, single point] | –
67 | Fc1ccc(CNc2nc(-c3ccccc3)nc3ccccc23)cc1 | inconclusive [cytotoxic, single point] | –
68 | O=C(O)c1ccccc1C(=O)c1ccc(-c2ccccc2)cc1 | – | inactive: 0.394%
69 | O=C(O)CNC1=NCCCCC1 | inconclusive [rising, single point] | –
70 | O=C(CCNC(=O)C1CCN(S(=O)(=O)c2ccccc2)CC1)NCc1ccncc1 | – | inactive: 4.07%
71 | NC(=O)CC(NC(=O)Cc1ccc(Br)cc1)c1ccc(N2CCc3ccccc3C2)c([N+](=O)[O-])c1 (stereo unspecified) | inconclusive [cytotoxic, single point] | –
